For one test, the system named is HSkMC. Nature of the test: cytotoxicity call (relative viability < 0.9). The following applies: 10 µM.
The subject of the next test is HepG2. Nature of the test: cytotoxicity call (relative viability < 0.9). To be noted: 10 µM.
Another test deals with S. aureus RN4220. Nature of the test: growth inhibition call (relative growth <= 0.2). The following applies: 50 µM.

The other results are listed elsewhere or left out.

In the case of `C[C@@H]1CN([C@H](C)CO)C(=O)c2cc(NC(=O)Nc3cccc4ccccc34)ccc2O[C@@H]1CN(C)Cc1ccc(C(F)(F)F)cc1`, the cytotoxicity call in the test with HSkMC and in the test on HepG2 was “inactive” throughout. Moreover, the growth inhibition call in the test on S. aureus RN4220 is “inactive”.
Regarding `Cc1noc(C)c1NC(=O)Nc1ccc2c(c1)C(=O)N([C@@H](C)CO)C[C@H](C)[C@@H](CN(C)CC1CC1)OCCCC[C@H](C)O2`, the cytotoxicity call in the test on HSkMC and in the test on HepG2 was “inactive” each time. Besides, the growth inhibition call in the test on S. aureus RN4220 was “inactive”.
As for `C[C@H]1CN([C@@H](C)CO)C(=O)CCCn2cc(nn2)CO[C@H]1CN(C)S(=O)(=O)c1ccc(Cl)cc1`, the cytotoxicity call with HSkMC and in the test on HepG2 was “inactive” each time. Further, the growth inhibition call with S. aureus RN4220 was “inactive”.
For the compound `NC[C@@H](O)CC(=O)O`, the cytotoxicity call in the test with HSkMC and in the test with HepG2 was “inactive” in each case. Also, the growth inhibition call in the test with S. aureus RN4220 was “inactive”.
As to `COc1cccc(S(=O)(=O)N(C)C[C@H]2OCc3cnnn3CCCC(=O)N([C@H](C)CO)C[C@@H]2C)c1`, the cytotoxicity call in the test on HSkMC and in the test on HepG2 was “inactive” in each case. Moreover, in the test on S. aureus RN4220, the growth inhibition call is “inactive”.
With `CCS(=O)(=O)Nc1ccc2c(c1)C(=O)N(C)[C@@H]1CC[C@@H](CC(=O)N[C@@H]3CCN(Cc4ccccc4)C3)O[C@H]1CO2`, the cytotoxicity call in the test with HSkMC and in the test with HepG2 was “inactive” each time. Besides, the growth inhibition call in the test with S. aureus RN4220 is “inactive”.
In the case of `COc1ccc2c3c(n(c2c1)C)[C@@H](CO)N(Cc1cc(cc(c1)OC)OC)C[C@]13CN(C1)C(=O)CN1CCOCC1`, the cytotoxicity call in the test on HSkMC and in the test on HepG2 was “inactive” throughout. Moreover, the growth inhibition call in the test with S. aureus RN4220 is “inactive”.
Regarding `C[C@H]1CN([C@@H](C)CO)C(=O)Cc2cc(NC(=O)Nc3cccc4ccccc34)ccc2O[C@H]1CN(C)C(=O)NC1CCCCC1`, the cytotoxicity call in the test with HSkMC and in the test on HepG2 was “inactive” each time. For the same compound, the growth inhibition call in the test with S. aureus RN4220 is “inactive”.
Take `Cc1ccc(S(=O)(=O)Nc2ccc3c(c2)C(=O)N([C@H](C)CO)C[C@@H](C)[C@@H](CN(C)C(=O)C2CCCCC2)OCCCC[C@H](C)O3)cc1`: the cytotoxicity call in the test with HSkMC and in the test with HepG2 was “inactive” in each case. In addition, the growth inhibition call in the test with S. aureus RN4220 is “inactive”.
`CC1(C)SC2C(NC(=O)COc3ccccc3)C(=O)N2C1C(=O)[O-].[K+]` (stereo not drawn): the cytotoxicity call in the test with HSkMC and with HepG2 was “inactive” throughout. Besides, the growth inhibition call in the test with S. aureus RN4220 was “active”.
For the compound `Cc1cc(=O)nc(SCC(N)=O)[nH]1`, in the test on HSkMC, the cytotoxicity call is “inactive”. The cytotoxicity call with HepG2 was “active”. Further, in the test on S. aureus RN4220, the growth inhibition call is “inactive”.
For `Cc1noc(C)c1S(=O)(=O)Nc1ccc2c(c1)C(=O)N([C@@H](C)CO)C[C@@H](C)[C@H](CN(C)Cc1ccncc1)O2`, the cytotoxicity call in the test on HSkMC and in the test on HepG2 was “inactive” in each case. Also, the growth inhibition call with S. aureus RN4220 was “inactive”.
Consider `COc1ccc(NC(=O)Nc2ccc3c(c2)C(=O)N([C@H](C)CO)C[C@H](C)[C@H](CN(C)S(=O)(=O)c2cccs2)OCCCC[C@@H](C)O3)cc1`, for which the cytotoxicity call in the test with HSkMC and in the test with HepG2 was “inactive” in each case. For the same compound, the growth inhibition call in the test with S. aureus RN4220 was “inactive”.
Consider `Cc1cn([C@@H]2C[C@@H](O)[C@H](CO)O2)c(=O)[nH]c1=O`, for which the cytotoxicity call in the test with HSkMC and in the test on HepG2 was “inactive” throughout. Besides, in the test with S. aureus RN4220, the growth inhibition call is “inactive”.
For `C[C@H]1CN([C@@H](C)CO)C(=O)Cc2cc(NC(=O)Nc3ccc(C(F)(F)F)cc3)ccc2O[C@H]1CN(C)S(=O)(=O)c1ccc(Cl)cc1`, the cytotoxicity call with HSkMC and in the test with HepG2 was “active” in each case. In addition, in the test with S. aureus RN4220, the growth inhibition call was “inactive”.
On to `CC=C1C2C=C(C)CC1(N)c1ccc(=O)[nH]c1C2` (stereo not drawn), for which the cytotoxicity call with HSkMC and in the test on HepG2 was “inactive” in each case. The growth inhibition call in the test with S. aureus RN4220 is “inactive”.
`CCCNC(=O)N1C[C@H](C)[C@H](OC)CN(C)C(=O)c2cc(NS(=O)(=O)CC(F)(F)F)ccc2OC[C@@H]1C`: the cytotoxicity call in the test with HSkMC and with HepG2 was “inactive” in each case. Also, the growth inhibition call in the test on S. aureus RN4220 was “inactive”.
For `COc1ccc(S(=O)(=O)N(C)C[C@@H]2Oc3c(NS(=O)(=O)c4c(C)noc4C)cccc3C(=O)N([C@H](C)CO)C[C@@H]2C)cc1`, the cytotoxicity call in the test with HSkMC and with HepG2 was “inactive” throughout. Moreover, the growth inhibition call with S. aureus RN4220 is “inactive”.
In the case of `C[C@H]1CN([C@@H](C)CO)S(=O)(=O)c2ccc(C#CCN(C)C)cc2O[C@H]1CN(C)Cc1ccc2c(c1)OCO2`, the cytotoxicity call in the test on HSkMC and in the test on HepG2 was “inactive” throughout. In addition, the growth inhibition call in the test with S. aureus RN4220 was “inactive”.
As for `O=C1c2ccccc2[C@@]2(Cc3ccccc3N(Cc3ccccc3)C2=O)[C@H](c2ccc(CO)cc2)N1Cc1ccccc1C(F)(F)F`, the cytotoxicity call in the test with HSkMC and in the test on HepG2 was “inactive” throughout. In the test on S. aureus RN4220, the growth inhibition call was “inactive”.
In the case of `C[C@@H]1CN([C@@H](C)CO)S(=O)(=O)c2ccc(C#C[C@@H](C)O)cc2O[C@H]1CN(C)C(=O)Nc1ccccc1`, the cytotoxicity call with HSkMC and in the test with HepG2 was “inactive” each time. Further, the growth inhibition call in the test on S. aureus RN4220 was “inactive”.
As to `CO[C@@H]1CN(C)C(=O)c2cc(NC(=O)Nc3ccccc3Cl)ccc2OC[C@@H](C)N(Cc2ccccc2C(=O)O)C[C@H]1C`, the cytotoxicity call with HSkMC and in the test with HepG2 was “inactive” throughout. In the test with S. aureus RN4220, the growth inhibition call was “inactive”.
Regarding `CNC[C@H]1OCCCC[C@H](C)Oc2ccc(NS(=O)(=O)c3cn(C)cn3)cc2C(=O)N([C@@H](C)CO)C[C@H]1C`, the cytotoxicity call in the test on HSkMC (human skeletal muscle cells) and in the test on HepG2 was “inactive” in each case. The growth inhibition call in the test on S. aureus RN4220 was “inactive”.
`NCC[C@@H](O)c1ccc(Br)cc1`: the cytotoxicity call with HSkMC and in the test with HepG2 was “inactive” in each case. Moreover, the growth inhibition call with S. aureus RN4220 is “inactive”.
As for `C[C@H](CO)N1C[C@H](C)[C@@H](CN(C)Cc2ccc3c(c2)OCO3)Oc2ccc(NC(=O)CCN3CCOCC3)cc2C1=O`, the cytotoxicity call in the test with HSkMC and with HepG2 was “inactive” throughout. Further, the growth inhibition call with S. aureus RN4220 was “inactive”.
Regarding `C[C@@H]1CN([C@@H](C)CO)C(=O)c2cc(NC(=O)Nc3cccc4ccccc34)ccc2O[C@@H](C)CCCCO[C@H]1CN(C)Cc1ccc(C(=O)O)cc1`, the cytotoxicity call in the test with HSkMC and with HepG2 was “inactive” in each case. In the test on S. aureus RN4220, the growth inhibition call was “inactive”.

For the origin of these results see the antibiotic and cytotoxicity screens of Wong et al. (2023).
